The record followed here is ChEMBL document CHEMBL4888484, “Replenishing the malaria drug discovery pipeline: Screening and hit evaluation of the MMV Hit Generation Library 1 (HGL1) against asexual blood stage Plasmodium falciparum ,using a nano luciferase reporter read-out” (2022).

Among all 150,000 compounds or so, about 540 (0.36%) showed an effect of 50% or more. The list shows a part of the results.

This assay concerns Plasmodium falciparum. The experiment in a line: Primary screen in NF54 nanoGlo assay, in single point, at 2uM, 72h; a lower Z score goes with more inhibition. The class given is functional, Erythrocyte. Particulars: timepoint 72 hour.
In general, % Inhibition refers to the drop in the measured response relative to a control, in per cent. Consider `Cc1cc([C@@H](O)CCNC(=O)c2snnc2C)c(C)o1`, for which the “% Inhibition” value is recorded as -27% and the Z score amounted to 3.48.
The like results for `CN(CC[C@H]1CCCCO1)Cc1ccc2cc(O)ccc2c1` were, in that order, -1% and 0.18.
On to `Cc1ccnc(NC(=O)c2cccc(-c3nc(-c4ccc(F)cc4)no3)c2)c1`, for which the “% Inhibition” value is given as -2% and the Z score was found to be 0.23.
Turning to `C[C@H](NC(=O)N(C)Cc1ccc2c(c1)CN(C)C2)c1cnn(C)c1`, the “% Inhibition” value is reported as -4% and the Z score was 0.38.
In the case of `Cc1cc(C(=O)N2CC(=O)N(C)C2)c2n[nH]cc2c1`, the “% Inhibition” value was -10% and the Z score is listed as 1.5.
The like results for `Cc1nc(CCc2cccnc2)n(C(C)(C)C)n1` were, in that order, -2% and 0.31.
The corresponding values for `CCc1nc(C(C)C)ccc1C(=O)NC[C@]1(O)CCOC1` are 7% and -0.76.
Regarding `O=C(CCc1ccsc1)N[C@H]1CCOC[C@@H]1O`, the “% Inhibition” value is -6% and the Z score amounted to 0.56.
The corresponding values for `CCOc1ccc(CC(=O)N2CCC3(CC2)NC(c2ccc(C)cc2)=NO3)cc1` are -14% and 1.78.
For the compound `O=C(Cc1cc(F)ccc1F)N1CC2(CCOCC2)C1`, the “% Inhibition” value is recorded as -7% and the Z score is on record as 1.32.
With `COc1ccc2c(c1)CC[C@H]2C(=O)Nc1ccnn1C1CC1`, the “% Inhibition” value is -12% and the Z score was 1.35.
With `C[C@H](CCC(=O)Nc1ccc2c(c1)OCO2)[C@H]1CC[C@H]2[C@@H]3[C@@H](O)C[C@@H]4C[C@H](O)CC[C@]4(C)[C@H]3CC[C@]12C`, the “% Inhibition” value is on record as -12% and the Z score came to 1.52.
Consider `Cc1cccnc1-n1nc(-c2ccccc2)nc1CNC(=O)c1ccccc1`, for which the “% Inhibition” value is listed as -6% and the Z score stood at 1.08.
Consider `Cc1cnc(Cn2cc(Br)c(C)cc2=O)o1`, for which the “% Inhibition” value amounted to 3% and the Z score is given as -0.5.
The like results for `Cn1nncc1CN1CC[C@H](n2cccn2)C1` were, in that order, -11% and 1.9.
Regarding `Cc1cc(C)n(CC2CCN([C@@H](C)c3cccnc3)CC2)n1`, the “% Inhibition” value is listed as 3% and the Z score is -0.41.
The like results for `Cc1cccc(N2CCN(c3ccc(C(=O)O)cc3NS(=O)(=O)c3cc(C)ccc3C)C[C@@H]2C)c1` were, in that order, -5% and 0.45.
As to `CC(C)[C@H](NC(=O)c1c(F)cccc1F)C(=O)OCc1c(F)c(F)c(F)c(F)c1F`, the “% Inhibition” value is -2% and the Z score was 0.37.
The like results for `Cc1csc(C(=O)NCc2cnn3c2CCCC3)c1` were, in that order, 8% and -1.28.
As for `O=C(CS(=O)(=O)c1ccccc1)Nc1nc(-c2ccc3c(c2)OCO3)cs1`, the “% Inhibition” value is given as -10% and the Z score amounted to 1.57.
The like results for `COC[C@H](C)NC(=O)Nc1ccc(F)cc1C` were, in that order, -12% and 1.08.
As to `COc1cc(OC23CCCN(CC2)C3)cc(Cl)c1CN1CCCC1` (stereo unspecified), the “% Inhibition” value is -8% and the Z score stood at 1.09.
The corresponding values for `Cc1cccc(-c2nnc3c4ccccc4nc(N4CCN(S(=O)(=O)c5cccc(C)c5)[C@@H](C)C4)n23)c1` are 8% and -1.2.
